Experimental data as given in paper PMC3310140.
No constants are given. Whether binding was seen depends on the method and setting. Some results given as binding are weak or reduced against the parent protein; the word gives no strength. Each block holds one binder with its values, some of them ahead of it.

Experiments:
[1] = target: T1, Mug20 (S. pombe) (UniProt Q9HGN4); assay: two-hybrid; Matchmaker GAL4 Two-Hybrid System 3; pGBKT7 (BD) baits in one and pGADT7 (AD) preys in the other of S. cerevisiae Y187 and AH109, mated; spot tests of 1:10 dilution series on -Leu-Trp-His and -Leu-Trp-Ade media, growth read after 2-3 days; repeated three times
T1 sequence: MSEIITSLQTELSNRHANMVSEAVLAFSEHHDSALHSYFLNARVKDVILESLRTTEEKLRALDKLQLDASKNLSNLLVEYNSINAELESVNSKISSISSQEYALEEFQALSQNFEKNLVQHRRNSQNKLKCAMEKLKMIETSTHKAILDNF

[2] = target: T2, Rec10 (S. pombe) (UniProt Q09823); assay: as above
T2 sequence: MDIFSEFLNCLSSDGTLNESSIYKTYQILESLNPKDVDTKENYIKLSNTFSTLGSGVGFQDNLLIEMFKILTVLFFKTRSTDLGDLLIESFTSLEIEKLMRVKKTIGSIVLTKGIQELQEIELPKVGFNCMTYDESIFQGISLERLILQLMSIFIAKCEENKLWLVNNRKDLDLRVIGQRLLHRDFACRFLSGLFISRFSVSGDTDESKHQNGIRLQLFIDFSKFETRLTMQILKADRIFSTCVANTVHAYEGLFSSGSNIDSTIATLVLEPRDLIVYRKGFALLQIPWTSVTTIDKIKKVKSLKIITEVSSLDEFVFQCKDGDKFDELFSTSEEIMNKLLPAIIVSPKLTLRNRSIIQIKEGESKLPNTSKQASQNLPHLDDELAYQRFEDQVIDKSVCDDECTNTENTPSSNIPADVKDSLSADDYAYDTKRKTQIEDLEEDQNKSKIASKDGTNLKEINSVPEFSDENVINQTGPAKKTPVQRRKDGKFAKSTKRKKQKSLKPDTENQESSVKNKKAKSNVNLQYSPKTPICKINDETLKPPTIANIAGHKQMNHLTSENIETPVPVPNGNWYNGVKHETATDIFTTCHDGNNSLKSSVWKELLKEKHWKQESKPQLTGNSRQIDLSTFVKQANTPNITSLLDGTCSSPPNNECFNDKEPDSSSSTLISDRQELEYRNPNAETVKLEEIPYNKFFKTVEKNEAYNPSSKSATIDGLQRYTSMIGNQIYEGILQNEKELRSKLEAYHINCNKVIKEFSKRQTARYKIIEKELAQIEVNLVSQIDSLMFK

- binding [1]: binds
B1: Mug20 (protein, UniProt Q9HGN4 1-151)
chain: T1 sequence

- binding [1]: no binding
B2: Rec10 (protein, UniProt Q09823 1-791)
chain: T2 sequence

- binding [1]: binds
- binding [2]: binds
B3: Rec25 (protein, UniProt Q9C115 1-150)
chain: MVKGSVTNTSSIVKQFEKSSIKHETETIAFAKQFINECIREFQEQKDNVVEEKNTDQNHQNQNQEGVIIEIYQELLQKVDLISSELRQNLSSLQLRFQEVERDTGHDLLNVLNSLSQEARLAQKVLEEDGSQQGSQLIQGLLTCFQSTGN

- binding [2]: binds
B4: Hop1 (protein, UniProt Q9P7P2 1-528)
chain: MNSYKEEILQTKSDFTLKNLIFFAISTLCYKRALFNENCYKKVNFEIEHFKGADFDCQLKPTVVSLQAGVDKEADSFLEMMKTYIFSLVSMKVPFTVYLIISSQCKSILEDDAVEKEIFSFTINPGSEEKICCESFVSYQRSERFVIKLFLSGNVKTECKDEEKVVQIITKMERFQLSKGEATKAGVFLNTVETKDCMSWLNRGEFKDIVSFYESNNGIAISHCSHAFVPISTEKIMINKESSLFDSQEKIDSQLEKFLQPLKYDEIGSTQILDEQSVEKSLSQGKCEKMQNESRGLREIKNNNPCEEVKKSNWLKKNISGSDKVDKAEKKKALLNCECGDSTEDSEMFQCERCDGWVHCACYGFESDSDPRQPNQLLCYTCLLVDSESSLYDRMTMLVAYRRAIRCIWASEYQGFQKLAARLNCSYADAKRIEERLVNENIIYKEKKRKWIYFTNKSPEMVSYLREKYFTPSRWISHLNFQNYRQENQRVNMRSFLRPERMEVIERPKKVSKTSNTKETDTMKPLRI
